This is one part of the list. Repeats are few or missing, and single values can be far off.
Each compound was assayed on G361 (assay: cell count relative to DMSO control; melanoma cells; higher = more viable cells). Conditions: library dose: standard library concentration; 72 h.
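Also: cells treated in 1,536-well plates, then fixed and DAPI-stained, with nuclei counted from automated high-throughput microscope images.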

Row | SMILES | cell count [%]
1 | COCC[n+]1c2c(n(Cc3cnccn3)c1C)C(=O)c1ccccc1C2=O + COc1ccc2c(c1)CCC1C2CCC2(C)C(NCCCCCCN3C(=O)C=CC3=O)CCC12 [U73122] (first compound 0.002 µM, partner dose 2 µM) | 125
2 | C#Cc1cccc(Nc2ncnc3cc(OCCOC)c(OCCOC)cc23)c1 [erlotinib] + COCC[n+]1c2c(n(Cc3cnccn3)c1C)C(=O)c1ccccc1C2=O [YM155] (first compound 4 µM, partner dose 0.002 µM) | 40
3 | Clc1ccc(Nc2nnc(Cc3ccncc3)c3ccccc23)cc1 [vatalanib] + CCc1ccc(CCOc2ccc(CC3SC(=O)NC3=O)cc2)nc1 [pioglitazone] (first compound 10 µM, partner dose 10 µM) | 66.4
4 | C#Cc1cccc(Nc2ncnc3cc(OCCOC)c(OCCOC)cc23)c1 [erlotinib] + CO[C@@H]1[C@H](N(C)C(=O)c2ccccc2)C[C@H]2O[C@]1(C)n1c3ccccc3c3c4c(c5c6ccccc6n2c5c31)C(=O)NC4 [Midostaurin] (first compound 4 µM, partner dose 0.4 µM) | 44

These compounds were tested on IPC-298 in the same assay as above. Conditions: library dose: standard library concentration; 72 h.

Row | SMILES | cell count [%]
5 | COCC[n+]1c2c(n(Cc3cnccn3)c1C)C(=O)c1ccccc1C2=O + CCc1ccc(CCOc2ccc(CC3SC(=O)NC3=O)cc2)nc1 [pioglitazone] (first compound 0.002 µM, partner dose 10 µM) | 61.9
6 | Clc1ccc(Nc2nnc(Cc3ccncc3)c3ccccc23)cc1 [vatalanib] + Oc1cc(-c2nc(-c3ccccc3)[nH]c2-c2ccncc2)ccc1Cl [L779450] (first compound 10 µM, partner dose 1 µM) | 72.5
7 | Clc1ccc(Nc2nnc(Cc3ccncc3)c3ccccc23)cc1 [vatalanib] + Cn1cc(/C=C2\C(=O)Nc3cccnc32)c2ccccc21 [GW441756] (first compound 10 µM, partner dose 2 µM) | 65.7
8 | Nc1cccc2c1CN(C1CCC(=O)NC1=O)C2=O (stereo unspecified) [lenalidomide] + O=S(=O)(c1ccccc1)N(CC(F)(F)F)c1ccc(C(O)(C(F)(F)F)C(F)(F)F)cc1 [T0901317] (first compound 5 µM, partner dose 7 µM) | 82.4
9 | Nc1cccc2c1CN(C1CCC(=O)NC1=O)C2=O (stereo unspecified) [lenalidomide] + CN(C)S(=O)(=O)c1ccc2c(c1)/C(=C/c1cc3c([nH]1)CCCC3)C(=O)N2 [SU6656] (first compound 5 µM, partner dose 2 µM) | 89.8
10 | C#Cc1cccc(Nc2ncnc3cc(OCCOC)c(OCCOC)cc23)c1 [erlotinib] + COc1cc(Nc2ncc(F)c(Nc3ccc4c(n3)NC(=O)C(C)(C)O4)n2)cc(OC)c1OC [Tamatinib] (first compound 4 µM, partner dose 2 µM) | 98.5
11 | Nc1cccc2c1CN(C1CCC(=O)NC1=O)C2=O (stereo unspecified) [lenalidomide] + CC(C)(C)c1cnc(CSc2cnc(NC(=O)C3CCNCC3)s2)o1 [SNS-032] (first compound 5 µM, partner dose 0.05 µM) | 101
12 | O=C(CCCCCCC(=O)Nc1ccccc1)NO [vorinostat] + CC(C)(C)c1cnc(CSc2cnc(NC(=O)C3CCNCC3)s2)o1 [SNS-032] (first compound 0.4 µM, partner dose 0.05 µM) | 105
13 | Clc1ccc(Nc2nnc(Cc3ccncc3)c3ccccc23)cc1 [vatalanib] + O=C(Nc1ccccc1)c1cc([N+](=O)[O-])ccc1Cl [GW9662] (first compound 10 µM, partner dose 10 µM) | 67.3
14 | COCC[n+]1c2c(n(Cc3cnccn3)c1C)C(=O)c1ccccc1C2=O + COc1cc(N2CCC(N3CCN(C)CC3)CC2)ccc1Nc1ncc(Cl)c(Nc2ccccc2S(=O)(=O)C(C)C)n1 [NVP-TAE684] (first compound 0.002 µM, partner dose 0.4 µM) | 41.2
15 | O=C(CCCCCCC(=O)Nc1ccccc1)NO [vorinostat] + COc1ccc(-c2ccc3c(N4CCOCC4)nc(N4C[C@@H](C)O[C@@H](C)C4)nc3n2)cc1CO [KU0063794] (first compound 0.4 µM, partner dose 0.1 µM) | 58.6
16 | Cn1c(Nc2ccc(C(F)(F)F)cc2)nc2cc(Oc3ccnc(-c4ncc(C(F)(F)F)[nH]4)c3)ccc21 + CN(C)S(=O)(=O)c1ccc2c(c1)/C(=C/c1cc3c([nH]1)CCCC3)C(=O)N2 [SU6656] (first compound 0.4 µM, partner dose 2 µM) | 42.5

From the supplement of paper PMC4604168 (melanoma cell lines)
